Out of some 150,000 compounds screened, about 540 (0.36%) showed an effect of 50% or more. The list shows a part of the results.

The subject of this experiment is Plasmodium falciparum. Nature of the experiment: Primary screen in NF54 nanoGlo assay, in single point, at 2uM, 72h; a lower Z score goes with more inhibition. The settings on record: timepoint 72 hour. Format: functional, Erythrocyte.
As to `C[C@H]1CCN(C(=O)c2ccc(S(C)(=O)=O)cc2)[C@@H](C)C1`, the % Inhibition – broadly, the drop in the measured response relative to a control, in per cent – is on record as -13% and the Z score was determined as 1.57.

On to `COc1ccccc1N1CCN(C(=O)c2noc(-c3ccc(C)cc3)n2)CC1`, for which the “% Inhibition” value is given as -13% and the Z score is recorded as 1.19.

Take `Cn1cc(CNC(=O)[C@H]2CCC(=O)N(C3CC3)[C@@H]2c2ccncc2)cn1`: the “% Inhibition” value is -13% and the Z score was found to be 1.81.

As for `Cc1nc2cc(NC(=O)c3ccccc3OC[C@H]3CCCO3)ccc2o1`, the “% Inhibition” value is on record as -14% and the Z score was 2.18.

Consider `O=C1C[C@@H](C(=O)N2CCCCCC2)Cc2nc(NC(=O)C3CCC3)sc21`, for which the “% Inhibition” value was -12% and the Z score worked out at 1.33.

For `CCCCNC(=O)c1cccnc1Oc1cccc(NS(=O)(=O)c2ccc(F)cc2)c1`, the “% Inhibition” value is 3% and the Z score is on record as -0.49.

As to `CC(C)c1noc(CNC(=O)CCN2CCCCCCC2)n1`, the “% Inhibition” value was 0% and the Z score is recorded as -0.02.

With `CC1(CO)CC(O)CN1C(=O)Nc1ccc2c(c1)OCCO2` (stereo not drawn), the “% Inhibition” value is on record as -9% and the Z score came to 1.71.

Regarding `C[C@]1(F)CCCN(CC(=O)N2CCC2)C1`, the “% Inhibition” value is -3% and the Z score was determined as 0.35.

Regarding `CCCC1CC(C(=O)N2CCC(n3cnc(C(N)=O)c3N)CC2)CCO1` (stereo not drawn), the “% Inhibition” value is listed as -16% and the Z score is on record as 1.76.

For the molecule `Cc1ncsc1CNC(=O)[C@H]1CCN(c2ccccc2)C1`, the “% Inhibition” value was -6% and the Z score worked out at 1.12.

`C#Cc1cccnc1N1CC(C)OC(C2CC2)C1` (stereo not drawn): the “% Inhibition” value was -4% and the Z score came out at 0.52.

In the case of `O=C(C1CCCCN1)N1CCCC(C(F)(F)F)C1` (stereo not drawn), the “% Inhibition” value is -2% and the Z score is 0.26.

Regarding `CS(=O)(=O)N1CCC(C(=O)N(Cc2ccccc2)c2ccccc2)CC1`, the “% Inhibition” value was -8% and the Z score was 1.24.

For the molecule `Cn1ccc([C@H]2CCCN(S(=O)(=O)c3ccc(F)c(Cl)c3)C2)n1`, the “% Inhibition” value was -14% and the Z score turned out to be 1.59.

Consider `CC(C)CCN(Cc1cccc(C#N)c1)Cc1cccn1Cc1ccc(F)cc1`, for which the “% Inhibition” value is listed as -5% and the Z score was 0.55.

`O=C(Nc1cccc(-c2cc3ccccc3[nH]2)c1)NC1CCCC1`: the “% Inhibition” value amounted to 2% and the Z score is -0.22.

For the molecule `Cc1cc(CS(=O)(=O)[C@@H](C)c2nc(C)no2)on1`, the “% Inhibition” value turned out to be 1% and the Z score is recorded as -0.12.

For `CCN(CC)c1nc2cc(C(=O)NC3CC3)ccc2c(=O)n1Cc1ccc(C)cc1`, the “% Inhibition” value was -8% and the Z score came to 1.56.

Take `COc1cccc(OC2CN(Cc3ccc(F)cc3Cl)C2)c1`: the “% Inhibition” value was -12% and the Z score is recorded as 2.34.

Consider `c1cc(N2CC3(CCOCC3)C2)nc(-c2nccs2)n1`, for which the “% Inhibition” value turned out to be 5% and the Z score was -0.9.

For the molecule `Cc1cnn([C@@H](C)C2CC2)c1NC(=O)c1scc2c1OCCO2`, the “% Inhibition” value is -1% and the Z score came to 0.2.

In the case of `Nc1cc(Cl)ccc1C(=O)OCc1nnnn1-c1ccccc1`, the “% Inhibition” value was determined as 10% and the Z score was -1.33.

Consider `C[C@@H](CC(=O)NCc1ccc(Cl)cc1)Cc1nnc2c(=O)n(-c3cccc(F)c3)ccn12`, for which the “% Inhibition” value is recorded as -2% and the Z score is 0.32.

In the case of `CC1CN(CCOC2CCN(C(=O)CCCn3cccn3)CC2)CC(C)O1` (stereo not drawn), the “% Inhibition” value is -8% and the Z score turned out to be 0.91.

On to `Cc1c(Br)cc(C#N)c(=O)n1Cc1ccn(C(C)C)n1`, for which the “% Inhibition” value is recorded as -16% and the Z score is recorded as 3.45.

For the molecule `CCn1cc(-c2ccc(C(=O)NCCc3ccc4c(c3)OCO4)cc2)c(C)n1`, the “% Inhibition” value was -9% and the Z score was 0.97.

As to `CC(C)NC(=O)N1CC(n2ccnn2)C1`, the “% Inhibition” value was -2% and the Z score is 0.28.

`CC(C)(C)c1ncc(C(=O)OCCC(F)(F)F)s1`: the “% Inhibition” value was -16% and the Z score came out at 2.45.

In the case of `COCCNC(=O)N[C@@H](c1ccsc1)c1cccs1`, the “% Inhibition” value is reported as -6% and the Z score is on record as 1.04.

As to `CN(C)S(=O)(=O)N1C[C@H]2CC[C@@H](C1)N(C(=O)CCc1ccncc1)C2`, the “% Inhibition” value is reported as -27% and the Z score is reported as 2.87.

`COc1ccc(-c2ncn[nH]2)c(-n2nc(C)cc2C)c1`: the “% Inhibition” value is 9% and the Z score was -1.33.

As for `C[C@@H](CNC(=O)c1cc2nccc(C(F)(F)F)n2n1)N(C)C1CC1`, the “% Inhibition” value is on record as 29% and the Z score was -3.31.

On to `CCc1ccc(CNCc2ccc(N(C)CC)nc2)s1`, for which the “% Inhibition” value was -13% and the Z score is 1.7.

Take `Cc1cc[nH]c1C(=O)Nc1ccnn1[C@H]1CCN(Cc2ccccc2)C1`: the “% Inhibition” value is listed as -11% and the Z score stood at 0.91.

For the molecule `NC(=O)Cc1cccc(OCCc2ccc3c(c2)CCO3)c1`, the “% Inhibition” value is reported as -7% and the Z score is recorded as 1.22.

Take `CC(C)C(=O)Nc1cc(C(=O)OCc2cnn(C)c2)c(F)cc1F`: the “% Inhibition” value was -1% and the Z score is reported as 0.12.

With `COC(C)c1nsc(NC(CN)C2CCCCC2)n1` (stereo not drawn), the “% Inhibition” value is on record as 1% and the Z score is -0.21.

For `Cc1ccc(Cn2nccc2N[C@H]2CCCOC2)s1`, the “% Inhibition” value is on record as -2% and the Z score was found to be 0.22.

For `CNc1cc(N2CCn3nc(CNc4cnccn4)cc3C2)nc(N)n1`, the “% Inhibition” value is given as -12% and the Z score is given as 1.17.

Take `COCCN1C(=O)[C@@H]2CC[C@H]1CN(Cc1nc(-c3ccc(C)cc3)no1)C2`: the “% Inhibition” value is recorded as -5% and the Z score is 0.94.

In the case of `CC(C)(O)CNC(=O)Nc1ccccc1N1CC2CCC1C2` (stereo not drawn), the “% Inhibition” value was -7% and the Z score is recorded as 0.9.

In the case of `COc1ccc(S(=O)(=O)N(Cc2c(C)nn(-c3ccccc3)c2Oc2ccc(F)cc2F)CC2CC2)cc1`, the “% Inhibition” value is -8% and the Z score stood at 1.29.

As to `Cc1ccc2cc(CN3CCC[C@H](N)CC3)c(N3CCOCC3)nc2c1`, the “% Inhibition” value was determined as 7% and the Z score is reported as -1.11.

In the case of `COCc1ncc(Br)c(O)n1`, the “% Inhibition” value is recorded as 9% and the Z score was -1.12.

Take `CCOCCN1CCC=C([C@H](C)NC(=O)c2cccc(C#N)c2)C1`: the “% Inhibition” value came to 4% and the Z score is given as -0.7.

With `COCCCNC(=O)CCc1c(-c2cccc(OC)c2)nc2ccc(-c3ccc(C(C)=O)cc3)cn12`, the “% Inhibition” value is reported as 11% and the Z score is reported as -1.74.

On to `CCO[C@H]1[C@H](NC(=O)c2cccnc2)c2ccccc2C12CCN(C(=O)c1cc(F)cc(F)c1)CC2`, for which the “% Inhibition” value is reported as -2% and the Z score is given as 0.45.

As for `O=C(COC(=O)c1cccc2ccccc12)NC(=O)NC1CCCC1`, the “% Inhibition” value is -3% and the Z score stood at 0.37.

Regarding `Nc1cc(S(=O)(=O)Nc2ccc(Cl)cc2)ccc1N1CCOCC1`, the “% Inhibition” value is recorded as -6% and the Z score is reported as 1.03.

As for `CN1CCc2ncnc(N3CCN(C(=O)C4CCCC4)CC3)c2C1`, the “% Inhibition” value is listed as -4% and the Z score stood at 0.69.

On to `COCC[C@H]1CN(Cc2cc(C(C)=O)cn2C)CCO1`, for which the “% Inhibition” value was -4% and the Z score is 0.4.

As to `Cc1ccc2cc1OCCCn1cc(nn1)CCN(CCC(C)C)CCNC(=O)[C@H]([C@@H](C)O)NC2=O`, the “% Inhibition” value is reported as -13% and the Z score was found to be 2.5.

Take `CC(=O)Oc1c(-c2ccc(NC(=O)CC(C)C)cc2)c(C(C)C)nn1-c1ccccc1`: the “% Inhibition” value was -15% and the Z score was determined as 1.72.

For the origin of these results see ChEMBL document CHEMBL4888484, “Replenishing the malaria drug discovery pipeline: Screening and hit evaluation of the MMV Hit Generation Library 1 (HGL1) against asexual blood stage Plasmodium falciparum ,using a nano luciferase reporter read-out” (2022).
